Experimental findings from the supplement of paper PMC12067093, “Discovery and optimisation of a covalent ligand for TRIM25 and its application to targeted protein ubiquitination” (Chemical Science, 2025) are described below.

Of roughly 21,000 targets only a part is listed; those with the largest changes were picked by preference.
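Also: competitive chemoproteomic profiling in live THP-1 cells with an iodoacetamide desthiobiotin (IA-DTB) probe, comparing probe-labelled peptide intensities in compound-treated cells against DMSO-treated controls.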

UniProt O15446, sequence (O15446 whole entry, looked up): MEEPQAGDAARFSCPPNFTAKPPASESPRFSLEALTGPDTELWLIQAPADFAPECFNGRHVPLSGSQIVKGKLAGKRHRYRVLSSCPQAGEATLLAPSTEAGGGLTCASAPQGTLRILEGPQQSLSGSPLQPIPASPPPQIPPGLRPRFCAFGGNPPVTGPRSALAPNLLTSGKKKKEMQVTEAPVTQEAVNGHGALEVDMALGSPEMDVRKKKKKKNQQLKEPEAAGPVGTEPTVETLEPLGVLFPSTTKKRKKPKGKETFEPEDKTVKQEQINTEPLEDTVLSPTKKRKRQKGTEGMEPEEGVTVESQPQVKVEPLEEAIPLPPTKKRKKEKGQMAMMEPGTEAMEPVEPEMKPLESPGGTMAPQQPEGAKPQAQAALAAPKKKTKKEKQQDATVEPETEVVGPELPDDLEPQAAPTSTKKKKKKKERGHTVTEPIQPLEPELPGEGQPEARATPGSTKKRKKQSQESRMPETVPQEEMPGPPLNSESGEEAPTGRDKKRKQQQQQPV
UniProt Q6ZMG9, sequence (Q6ZMG9 whole entry, looked up): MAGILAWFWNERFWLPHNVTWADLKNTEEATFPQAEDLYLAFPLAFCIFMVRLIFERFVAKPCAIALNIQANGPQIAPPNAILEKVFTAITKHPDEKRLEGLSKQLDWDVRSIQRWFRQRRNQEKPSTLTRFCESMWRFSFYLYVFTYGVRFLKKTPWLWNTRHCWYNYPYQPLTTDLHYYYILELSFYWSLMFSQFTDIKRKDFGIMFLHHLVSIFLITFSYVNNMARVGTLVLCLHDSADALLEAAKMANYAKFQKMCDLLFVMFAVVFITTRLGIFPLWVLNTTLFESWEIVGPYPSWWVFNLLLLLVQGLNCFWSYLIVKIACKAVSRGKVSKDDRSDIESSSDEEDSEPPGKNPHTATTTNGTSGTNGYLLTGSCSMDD
UniProt Q9Y6K0, sequence (Q9Y6K0 whole entry, looked up): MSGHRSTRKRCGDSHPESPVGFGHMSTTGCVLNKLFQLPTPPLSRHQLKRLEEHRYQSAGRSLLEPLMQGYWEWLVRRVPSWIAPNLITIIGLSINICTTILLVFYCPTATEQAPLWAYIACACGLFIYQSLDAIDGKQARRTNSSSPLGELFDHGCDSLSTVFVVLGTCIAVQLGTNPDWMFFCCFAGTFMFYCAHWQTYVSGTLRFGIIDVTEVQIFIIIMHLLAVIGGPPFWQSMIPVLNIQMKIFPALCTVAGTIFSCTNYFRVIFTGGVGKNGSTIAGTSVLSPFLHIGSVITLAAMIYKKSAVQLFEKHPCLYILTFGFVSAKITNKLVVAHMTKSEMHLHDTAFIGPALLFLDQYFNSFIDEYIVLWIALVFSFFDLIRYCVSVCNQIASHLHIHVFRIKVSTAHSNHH
UniProt Q3L8U1, sequence (Q3L8U1 whole entry, looked up): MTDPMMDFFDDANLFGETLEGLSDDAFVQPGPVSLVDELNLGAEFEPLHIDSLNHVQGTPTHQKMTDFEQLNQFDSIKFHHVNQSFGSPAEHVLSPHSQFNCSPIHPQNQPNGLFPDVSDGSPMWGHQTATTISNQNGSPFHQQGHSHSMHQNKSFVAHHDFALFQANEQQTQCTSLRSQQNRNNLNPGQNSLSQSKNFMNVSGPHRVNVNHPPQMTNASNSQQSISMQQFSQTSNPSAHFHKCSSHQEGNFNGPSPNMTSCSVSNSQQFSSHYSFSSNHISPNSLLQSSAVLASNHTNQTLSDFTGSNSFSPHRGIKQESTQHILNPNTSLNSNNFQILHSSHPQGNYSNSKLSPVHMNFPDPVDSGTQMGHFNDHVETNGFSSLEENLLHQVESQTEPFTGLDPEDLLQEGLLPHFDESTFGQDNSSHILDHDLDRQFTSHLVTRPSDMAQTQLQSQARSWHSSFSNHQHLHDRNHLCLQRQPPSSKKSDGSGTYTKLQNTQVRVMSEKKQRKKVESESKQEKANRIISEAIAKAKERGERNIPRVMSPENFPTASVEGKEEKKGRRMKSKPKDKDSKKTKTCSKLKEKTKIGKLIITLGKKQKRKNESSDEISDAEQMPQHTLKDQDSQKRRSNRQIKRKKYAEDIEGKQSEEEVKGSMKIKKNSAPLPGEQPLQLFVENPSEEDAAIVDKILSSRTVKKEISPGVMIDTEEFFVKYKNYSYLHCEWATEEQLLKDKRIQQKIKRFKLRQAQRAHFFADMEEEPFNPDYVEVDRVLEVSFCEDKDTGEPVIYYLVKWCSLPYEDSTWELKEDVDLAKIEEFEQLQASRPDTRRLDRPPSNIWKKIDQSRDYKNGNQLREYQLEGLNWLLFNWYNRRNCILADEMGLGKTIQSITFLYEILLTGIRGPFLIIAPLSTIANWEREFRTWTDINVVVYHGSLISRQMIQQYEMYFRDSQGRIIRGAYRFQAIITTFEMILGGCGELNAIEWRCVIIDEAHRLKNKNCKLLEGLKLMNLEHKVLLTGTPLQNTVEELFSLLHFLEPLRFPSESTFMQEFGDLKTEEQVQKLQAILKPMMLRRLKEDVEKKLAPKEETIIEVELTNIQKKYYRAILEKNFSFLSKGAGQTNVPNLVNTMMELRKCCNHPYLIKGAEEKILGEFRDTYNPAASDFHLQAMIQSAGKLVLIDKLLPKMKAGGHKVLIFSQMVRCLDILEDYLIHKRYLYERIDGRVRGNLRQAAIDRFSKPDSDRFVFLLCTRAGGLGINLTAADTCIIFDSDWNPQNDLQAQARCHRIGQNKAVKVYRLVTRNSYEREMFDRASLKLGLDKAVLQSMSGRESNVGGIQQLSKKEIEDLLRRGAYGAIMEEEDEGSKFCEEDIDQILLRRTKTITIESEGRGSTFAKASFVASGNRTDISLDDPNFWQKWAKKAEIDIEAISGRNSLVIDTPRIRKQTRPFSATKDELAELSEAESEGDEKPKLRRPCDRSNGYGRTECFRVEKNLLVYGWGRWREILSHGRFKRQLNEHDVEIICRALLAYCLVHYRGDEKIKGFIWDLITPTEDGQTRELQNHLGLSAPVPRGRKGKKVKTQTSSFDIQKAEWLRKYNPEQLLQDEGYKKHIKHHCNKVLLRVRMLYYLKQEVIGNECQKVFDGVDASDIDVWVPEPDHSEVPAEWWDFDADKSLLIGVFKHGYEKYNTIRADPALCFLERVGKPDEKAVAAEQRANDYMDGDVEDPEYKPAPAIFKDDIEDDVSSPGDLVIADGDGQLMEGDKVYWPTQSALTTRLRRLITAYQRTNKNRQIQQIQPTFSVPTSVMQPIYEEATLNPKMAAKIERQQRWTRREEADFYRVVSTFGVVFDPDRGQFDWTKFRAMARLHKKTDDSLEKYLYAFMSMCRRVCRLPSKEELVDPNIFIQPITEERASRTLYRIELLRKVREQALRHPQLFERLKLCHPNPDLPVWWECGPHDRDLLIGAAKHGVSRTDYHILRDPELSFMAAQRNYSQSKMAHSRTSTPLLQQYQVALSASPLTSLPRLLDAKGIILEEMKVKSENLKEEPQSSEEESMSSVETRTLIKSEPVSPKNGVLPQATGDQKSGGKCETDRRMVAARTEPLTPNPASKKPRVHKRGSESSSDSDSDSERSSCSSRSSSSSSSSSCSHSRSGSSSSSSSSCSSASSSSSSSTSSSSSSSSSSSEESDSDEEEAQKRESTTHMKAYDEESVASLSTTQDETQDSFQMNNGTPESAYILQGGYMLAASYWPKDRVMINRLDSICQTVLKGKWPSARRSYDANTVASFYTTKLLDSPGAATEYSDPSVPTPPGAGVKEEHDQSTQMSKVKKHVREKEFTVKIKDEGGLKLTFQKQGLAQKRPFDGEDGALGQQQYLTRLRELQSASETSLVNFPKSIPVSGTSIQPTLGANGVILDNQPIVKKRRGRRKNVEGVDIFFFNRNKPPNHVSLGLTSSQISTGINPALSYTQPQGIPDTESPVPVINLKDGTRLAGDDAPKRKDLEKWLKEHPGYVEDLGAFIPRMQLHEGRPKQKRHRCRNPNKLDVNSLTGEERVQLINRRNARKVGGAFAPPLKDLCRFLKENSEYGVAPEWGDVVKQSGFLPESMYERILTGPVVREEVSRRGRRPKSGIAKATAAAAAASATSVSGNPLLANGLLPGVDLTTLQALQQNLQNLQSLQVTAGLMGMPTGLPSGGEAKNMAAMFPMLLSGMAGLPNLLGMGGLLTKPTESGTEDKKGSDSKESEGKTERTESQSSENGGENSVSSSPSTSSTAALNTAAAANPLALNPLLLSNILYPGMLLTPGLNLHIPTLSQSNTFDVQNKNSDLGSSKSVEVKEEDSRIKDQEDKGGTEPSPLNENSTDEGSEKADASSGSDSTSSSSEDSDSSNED
UniProt P50990, sequence (P50990 whole entry, looked up): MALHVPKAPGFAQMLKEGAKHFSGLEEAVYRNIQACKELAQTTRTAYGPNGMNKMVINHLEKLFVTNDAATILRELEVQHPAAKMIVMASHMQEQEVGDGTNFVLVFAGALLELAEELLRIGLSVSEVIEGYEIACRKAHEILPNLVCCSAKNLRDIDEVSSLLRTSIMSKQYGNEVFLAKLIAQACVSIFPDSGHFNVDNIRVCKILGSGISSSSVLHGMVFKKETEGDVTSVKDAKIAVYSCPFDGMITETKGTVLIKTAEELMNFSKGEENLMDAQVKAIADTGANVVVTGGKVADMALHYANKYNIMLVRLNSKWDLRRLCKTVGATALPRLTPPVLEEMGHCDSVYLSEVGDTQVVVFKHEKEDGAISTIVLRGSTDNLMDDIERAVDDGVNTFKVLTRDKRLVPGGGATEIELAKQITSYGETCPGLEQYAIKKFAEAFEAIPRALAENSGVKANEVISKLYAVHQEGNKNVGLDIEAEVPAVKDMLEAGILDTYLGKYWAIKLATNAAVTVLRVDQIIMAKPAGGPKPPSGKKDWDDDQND
UniProt O95861, sequence (O95861 whole entry, looked up): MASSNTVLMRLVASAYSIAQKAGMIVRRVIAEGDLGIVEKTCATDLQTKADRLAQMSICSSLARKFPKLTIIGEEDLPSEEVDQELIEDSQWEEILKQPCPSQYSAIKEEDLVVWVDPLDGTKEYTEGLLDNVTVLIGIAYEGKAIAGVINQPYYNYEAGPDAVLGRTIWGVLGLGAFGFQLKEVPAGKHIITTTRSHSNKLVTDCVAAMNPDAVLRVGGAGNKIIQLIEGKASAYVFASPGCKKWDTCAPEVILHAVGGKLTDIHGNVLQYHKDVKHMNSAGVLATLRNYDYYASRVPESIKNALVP

Compound in this assay: CC1Cc2ccccc2N1C(=O)C1CCCN(C1)C(=O)CCl (mixture of isomers) [TRIM25 ligand 11 (diastereomer mixture)]
The assay is described as follows: probe-labelled cysteine peptide fold change vs DMSO (competition) (log2 fold change); higher = less target engagement (more negative = stronger competition). Particulars: 10 µM; THP-1; incubation time: 4 h.
On to “CNOT9_Q92600_91+99_VCNALALLQCVASHPETR (UniProt Q92600)”, for which the “probe-labelled cysteine peptide fold change” value turned out to be 0.0724. “CCT8_P50990_347_LTPPVLEEMGHCDSVYLSEVGDTQVVVFK (UniProt P50990)”: the “probe-labelled cysteine peptide fold change” value is 0.0456. Regarding “CHD9_Q3L8U1_993_CVIIDEAHR (UniProt Q3L8U1)”, the “probe-labelled cysteine peptide fold change” value is -0.0433. Next, “CDK12_Q9NYV4_862_CSNILLNNSGQIK (UniProt Q9NYV4)”: -0.0946. As to “CD3EAP_O15446_14_FSCPPNFTAKPPASESPR (UniProt O15446)”, the “probe-labelled cysteine peptide fold change” value is -0.00721. Next, “C2orf69_Q8N8R5_230_SSPSHTTNGCQGEK (UniProt Q8N8R5)”: 0.035; “CAND1_Q86VP6_1007_NCIGDFLK (UniProt Q86VP6)”: 5.23e-05; “CCDC88A_Q3V6T2_524_QSLQNCQNLSK (UniProt Q3V6T2)”: 0.0236. As to “BPNT1_O95861_249_WDTCAPEVILHAVGGK (UniProt O95861)”, the “probe-labelled cysteine peptide fold change” value was found to be 0.0346. Next, “CELF2_O95319_174_GCAFVTFSTR (UniProt O95319)”: -0.0617; “COPS6_Q7L5N1_266_EAYALCHCLPVLSTDK (UniProt Q7L5N1)”: -0.137; “CERS6_Q6ZMG9_236_VGTLVLCLHDSADALLEAAK (UniProt Q6ZMG9)”: -0.074. Next, “CLPB_Q9H078_446_QCPNAVVLFDEVDK (UniProt Q9H078)”: -0.233; “CEPT1_Q9Y6K0_11_CGDSHPESPVGFGHMSTTGCVLNK (UniProt Q9Y6K0)”: -0.0475. Next, “CABLES2_Q9BTV7_181_IVLICAK (UniProt Q9BTV7)”: 0.0124; “C8G_P07360_188_YGFCEAADQFHVLDEVR (UniProt P07360)”: 0.774.
